Measured values published in the supplement of paper PMC4967469.

Experiments:
Test in all cases: Viability of human cancer cell lines after 72 h of drug (GDSC screen)
CUDC-101 = compound: C#Cc1cccc(Nc2ncnc3cc(OC)c(OCCCCCCC(=O)NO)cc23)c1 [CUDC-101]; conditions: top dose 5.12 µM; top dose inferred
Experimental: (§1)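 Human cancer cell lines in 384-well plates, medium with 10% serum, drug for 72 h over a 256-fold dose range (nine 2-fold or five 4-fold steps up to the top dose). Adherent lines were fixed and stained with the nucleic acid dye Syto60, suspension lines read with resazurin; signal relative to control wells, capped at 0 and 100%. One two-parameter sigmoid per drug and line, fitted in a mixed model over all curves with the slope shared within a line.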

AC220 = compound: CC(C)(C)c1cc(NC(=O)Nc2ccc(-c3cn4c(n3)sc3cc(OCCN5CCOCC5)ccc34)cc2)no1 [AC220]; conditions: top dose 1.024 µM; top dose inferred
Experimental: as §1

RDEA119 = compound: COc1cc(F)c(F)c(Nc2ccc(I)cc2F)c1NS(=O)(=O)C1(C[C@H](O)CO)CC1 [RDEA119]; conditions: top dose 5 µM, top dose inferred
Experimental: as §1

JNK-9L = compound: Fc1cc(-c2ccnc(Nc3ccc(-n4cnc(N5CCOCC5)n4)cc3)n2)cc(N2CCOCC2)c1 [JNK-9L]; conditions: top dose 5.12 µM; top dose inferred
Experimental: as §1

OSU-03012 = compound: NCC(=O)Nc1ccc(-n2nc(C(F)(F)F)cc2-c2ccc3c(ccc4ccccc43)c2)cc1 [OSU-03012]; conditions: top dose 16 µM; top dose inferred
Experimental: as §1

5-Fluorouracil = compound: O=c1[nH]cc(F)c(=O)[nH]1 [5-Fluorouracil]; conditions: top dose 32 µM; top dose inferred
Experimental: as §1

QS11 = compound: OC[C@H](Cc1ccccc1)Nc1nc(Oc2ccc3c(c2)CCC3)nc2c1ncn2Cc1ccc(-c2ccccc2)cc1 [QS11]; conditions: top dose 10.24 µM
Experimental: as §1

| Cell Line | AUC (CUDC-101) | IC50 (CUDC-101) [µM] | AUC (AC220) | IC50 (AC220) [µM] | AUC (RDEA119; screen: GDSC drug entry 1014) | IC50 (RDEA119; screen: GDSC drug entry 1014) [µM] | AUC (RDEA119; screen: GDSC drug entry 1526) | IC50 (RDEA119; screen: GDSC drug entry 1526) [µM] | AUC (JNK-9L) | IC50 (JNK-9L) [µM] | AUC (OSU-03012) | IC50 (OSU-03012) [µM] | AUC (5-Fluorouracil) | IC50 (5-Fluorouracil) [µM] | AUC (QS11) | IC50 (QS11) [µM] |
| --- | --- | --- | --- | --- | --- | --- | --- | --- | --- | --- | --- | --- | --- | --- | --- | --- |
| MPP-89 (mesothelioma, adherent) | 0.436 | 0.203 | 0.981 | > 1.02 | 0.774 | 2.59 | 0.895 | > 5 | 0.801 | 3.42 | 0.819 | 13 | 0.972 | > 32 | 0.938 | > 10.2 |
| MRK-nu-1 (breast, suspension) | 0.784 | 1.98 | 0.99 | > 1.02 | 0.988 | > 5 | 0.989 | > 5 | 0.547 | 0.424 | 0.722 | 4.01 | 0.442 | 1.41 | 0.944 | > 10.2 |
| MS751 (cervix, adherent) | 0.697 | 1.09 | 0.99 | > 1.02 | 0.969 | > 5 | 0.939 | > 5 | 0.572 | 0.494 | 0.774 | 5.81 | 0.972 | > 32 | 0.966 | > 10.2 |
| MS-1 (small cell lung carcinoma, suspension) | 0.321 | 0.108 | 0.975 | > 1.02 | 0.986 | > 5 | 0.99 | > 5 | 0.808 | 2.32 | 0.848 | 10 | 0.619 | 4.08 | 0.928 | > 10.2 |
| MSTO-211H (mesothelioma, adherent) | 0.822 | 2.62 | 0.991 | > 1.02 | 0.83 | 2.74 |  |  | 0.805 | 2.3 | 0.99 | > 16 | 0.988 | > 32 | 0.99 | > 10.2 |
| MY-M12 (leukaemia, suspension) | 0.107 | < 0.02 | 0.902 | > 1.02 | 0.673 | 1.02 |  |  | 0.65 | 0.881 | 0.616 | 2.18 | 0.497 | 1.96 | 0.604 | 1.29 |
| MZ1-PC (pancreas, adherent) | 0.606 | 0.671 | 0.97 | > 1.02 | 0.657 | 0.95 | 0.67 | 1.05 | 0.401 | 0.16 | 0.507 | 1.05 | 0.569 | 3.22 | 0.818 | 7.67 |
| MZ2-MEL (melanoma, adherent) | 0.63 | 0.782 | 0.902 | > 1.02 | 0.562 | 0.475 | 0.753 | 1.93 | 0.564 | 0.493 | 0.748 | 5.93 | 0.961 | > 32 | 0.758 | 4.12 |
| MZ7-mel (melanoma, adherent) | 0.329 | 0.105 | 0.973 | > 1.02 | 0.455 | 0.235 | 0.395 | 0.16 | 0.661 | 0.914 | 0.824 | 9.95 | 0.778 | 13.4 | 0.803 | 5.29 |
| Mewo (melanoma, adherent) | 0.653 | 0.931 | 0.981 | > 1.02 |  |  | 0.763 | 2.14 | 0.656 | 0.949 | 0.845 | 15.1 | 0.955 | > 32 | 0.983 | > 10.2 |
| Mo-T (hairy cell leukaemia, suspension) | 0.596 | 0.592 | 0.784 | 0.445 | 0.959 | > 5 | 0.953 | > 5 | 0.758 | 1.82 | 0.846 | 12 | 0.824 | 19.7 | 0.981 | > 10.2 |
| NALM-6 (B-cell leukaemia, suspension) | 0.376 | 0.155 | 0.922 | > 1.02 | 0.985 | > 5 | 0.99 | > 5 | 0.454 | 0.245 | 0.432 | 0.673 | 0.412 | 1.2 | 0.783 | 3.58 |
| NAMALWA (Burkitt lymphoma, suspension) | 0.069 | < 0.02 | 0.991 | > 1.02 | 0.989 | > 5 | 0.991 | > 5 | 0.621 | 0.65 | 0.669 | 2.72 | 0.648 | 4.76 | 0.94 | > 10.2 |
| NB1 (neuroblastoma, semi-adherent) | 0.903 | > 5.12 | 0.97 | > 1.02 | 0.864 | > 5 | 0.908 | > 5 | 0.528 | 0.384 | 0.855 | 14.8 | 0.903 | > 32 | 0.815 | 6.37 |
| NB5 (neuroblastoma, adherent) | 0.803 | 2.58 | 0.97 | > 1.02 | 0.679 | 0.997 | 0.71 | 1.24 | 0.711 | 1.27 | 0.855 | 13 | 0.875 | > 32 | 0.983 | > 10.2 |
| NB7 (neuroblastoma, adherent) | 0.39 | 0.158 | 0.958 | > 1.02 | 0.986 | > 5 | 0.875 | > 5 | 0.184 | 0.034 | 0.721 | 4.36 | 0.802 | 16.6 | 0.887 | > 10.2 |
| NB10 (neuroblastoma, adherent) | 0.754 | 1.69 | 0.987 | > 1.02 | 0.954 | > 5 | 0.919 | > 5 | 0.67 | 0.94 | 0.803 | 7.71 | 0.669 | 5.83 | 0.827 | 6.05 |

IC50 is the fitted dose that halves viability relative to control wells, and lower means more sensitive; a fit beyond the top or the lowest dose is shown as a bound at that dose. AUC is the area under the same curve over the 256-fold range up to the top dose, as a fraction; values near 1 show little effect. For some assays here: Where the top dose is marked as inferred, it was derived from the fitted curves, not read from the paper. For some assays here: An entry number marks a drug with two screens in the source, which often give different values.
